Out of some 52,000 compounds screened, about 4,300 (8.3%) were called active. No stated cut-off is given here; in the data, active means survival mostly below about 52% (no sharp cut-off); inactive means mostly above about 56%. The list shows a part of the results.
System: DeltatarO mutant
Experiment: growth inhibition of S. aureus wild type versus tarO mutant, primary screen, teichoic acid synthesis inhibitors, RN4220, OD600 (AID 463173)
Conditions: OD600, 18 h, stronger effect = lower value, screened at 18.75 µg/mL (by protocol)

Row | SMILES | survival
1 | O=C(CSc1nnc(-c2ccccc2Br)n1-c1ccccc1)c1ccc(F)cc1 | active: 17%
2 | Cc1nc2ccn(Cc3cccnc3)c(=O)c2cc1C(=O)NCc1ccccc1 | inactive: 72%
3 | O=C(NC1CCCC1)c1ccc(CSc2nc3cccnc3n2Cc2cccc(F)c2)cc1 | inactive: 92%
4 | CC(C)(C)C1CCc2nc(NC(=O)c3cccc(Cl)c3)sc2C1 (centres undefined) | active: 3%
5 | COC(=O)c1ccc(OCC2c3cc(OC)c(OC)cc3CCN2C(=O)c2ccc(OC)cc2)cc1 (centres undefined) | inactive: 83%
6 | O=c1[nH]c(SCc2ccccc2)nc2c1CCCC2 | inactive: 57%
7 | COc1cc(OC)c(NC(=O)NCCn2nnc3cc(S(=O)(=O)N(C)C)ccc32)cc1Cl | inactive: 88%
8 | NC(=O)c1cccc(S(=O)(=O)N2CCOCC2)c1 | inactive: 88%
9 | COc1ccc(-c2nn3c(=O)cc(CN4CCN(C(=O)Nc5cc(C)ccc5C)CC4)nc3s2)cc1 | inactive: 99%
10 | CCOc1ccc(CCNC(=O)C(CC)n2nc(C)c3c(C)n(-c4ccccc4)nc3c2=O)cc1 (centres undefined) | inactive: 69%
11 | Cc1cccc(N2CCN(C(=O)c3sc4nc5n(c(=O)c4c3C)CCC5)CC2C)c1 (centres undefined) | inactive: 83%
12 | CCCCSCCCNC(=O)C1CCN(Cc2nc(-c3ccc(CC)cc3)oc2C)CC1 | active: 46%
13 | COc1ccc(-c2c(C#N)c(SCC(=O)Nc3ccc(C)c(C)c3)nc(C)c2C(=O)Nc2ccc(Cl)cc2)cc1 | inactive: 92%
14 | CCOC(=O)c1c(C)[nH]c(C)c1S(=O)(=O)N1CCC(C(=O)NCc2ccc(F)cc2)CC1 | active: 6%
15 | Cc1cc(-c2ccc(S(=O)(=O)Nc3cccc(C)c3C)s2)on1 | inactive: 130%
16 | CCOc1ccc(CN2C(=O)c3ccccc3Sc3ccc(C(=O)NCc4ccc5c(c4)OCO5)cc32)cc1 | inactive: 83%
17 | Cc1ccccc1NC(=O)Nc1csc2c1CCCC2 | active: 29%
18 | COc1ccc(C(=O)CSc2nc3cc(C(=O)NC4CCCC4)ccc3c(=O)n2CC2CCCO2)cc1 (centres undefined) | inactive: 95%
19 | CC(C)NC(=O)C(F)(F)F | inactive: 85%
20 | COc1ccc(C)cc1NC(=O)C(NS(=O)(=O)c1cccs1)c1ccccc1 (centres undefined) | active: 11%

Row | SMILES | survival
21 | Cc1cccc(C(=O)N2CCNC(=O)C2CC(=O)Nc2ccc(F)cc2)c1 (centres undefined) | inactive: 75%
22 | COC(=O)c1cc2oc3ccccc3c2n1CC(=O)Nc1cccc(SC)c1 | inactive: 63%
23 | Oc1ccccc1C(C#Cc1ccccc1)N1CCOCC1 (centres undefined) | inactive: 83%
24 | Cc1cccc(NC(=O)Cn2c(=O)n(CCc3ccccc3)c(=O)c3ccccc32)c1 | inactive: 82%
25 | COc1ccc(NC(=O)C2=C(C)Nc3ncnn3C2c2sccc2C)cc1 (centres undefined) | inactive: 87%
26 | CC(=O)N1CCCC1c1nc2ccccc2n1Cc1c(F)cccc1Cl (centres undefined) | inactive: 74%
27 | COc1cc(OC)c(NC(=O)Cc2c(C(=O)O)c(C)cn2C)cc1Cl | inactive: 88%
28 | Cc1ccc2oc(=O)n(CCNC(=O)Nc3ccccc3C)c2c1 | inactive: 109%
29 | COc1ccc(OC2CCN(S(=O)(=O)c3cccc(F)c3)CC2)cc1 | inactive: 86%
30 | CC(C)(C)c1ccc(C(=O)NCCN2CCCC2)cc1 | inactive: 95%
31 | Cc1ccc(CNC(=O)Cc2c(C(=O)O)c(C)cn2C)cc1 | inactive: 89%
32 | CCCCn1c(=O)c2oc3ccccc3c2n(CC(=O)Nc2cc(C)ccc2C)c1=O | active: 44%
33 | O=C(CC1C(=O)OCCN1Cc1ccccc1)Nc1cccc(Cl)c1 (centres undefined) | inactive: 170%
34 | Cc1ccc(CCNC(=O)CN2C(=O)COc3ccc(S(=O)(=O)N4CCCC4)cc32)cc1 | inactive: 74%
35 | Cc1cc(C)cc(NC(=O)c2nnn(Cc3cccc(Br)c3)c2N)c1 | inactive: 72%
36 | CCOc1cc(Cn2c(-c3ccc(O)c(OCC)c3)nc3ccccc32)ccc1O | inactive: 73%
37 | CCCCC(=O)N1CC(=O)Nc2ccc(F)cc2C1c1ccc(F)cc1 (centres undefined) | inactive: 60%
38 | CCn1c(CNC(=O)C23CC4CC(CC(C4)C2)C3)nnc1SCC(=O)Nc1ccc(C)cc1 | inactive: 60%
39 | CN=C1S/C(=C\c2cn(CC(=O)NCc3ccco3)c3ccccc23)C(=O)N1C | inactive: 57%
40 | CC(=O)OC(C(=O)NC1CCCCC1)c1ccccc1 (centres undefined) | inactive: 94%

Row | SMILES | survival
41 | CC(=O)c1ccc(NC(=O)c2sc(-n3nc(C)c(CCC(C)C)c3C)nc2C)cc1 | inactive: 65%
42 | Cc1ccc(S(=O)Cc2ccc(C(=O)NCc3ccc(OC(C)C)cc3)o2)cc1 (centres undefined) | inactive: 51%
43 | Cc1nc2c3cccnc3nn2c(C)c1CCC(=O)NCc1ccccc1Cl | inactive: 120%
44 | O=C1CC(SCc2nc3ccccc3[nH]2)C(=O)N1c1ccc(F)cc1 (centres undefined) | inactive: 83%
45 | Cc1ccc2c(Sc3ccccc3)c(C(=O)NCc3ccccc3F)[nH]c2c1 | inactive: 90%
46 | CCOc1ccccc1NC(=O)CSc1nc2ccccc2nc1Cc1ccc(C)cc1 | inactive: 78%
47 | CCCc1cnc2c(c1SCc1cccc(C)c1)c(=O)n(C)c(=O)n2C | inactive: 60%
48 | CCCOc1cccc(C(=O)Nc2cc(-c3nc4ccccc4[nH]3)ccc2C)c1 | active: 56%
49 | COC(=O)CSc1nc2c(cc1C#N)CCCC2 | inactive: 106%
50 | COc1cc(OC)c(NC(=O)c2sc3nc4n(c(=O)c3c2C)CCCC4)cc1Cl | inactive: 64%
51 | COc1ccc(S(=O)(=O)NCCc2sc(C)nc2C)cc1 | inactive: 70%
52 | Cc1ccc(Cn2ccn(Cc3ccc(C)cc3)c(=O)c2=O)cc1 | inactive: 97%
53 | CC1CCc2onc(C(=O)N3CCN(c4ccc(Cl)cc4)CC3)c2C1 (centres undefined) | inactive: 92%
54 | CCOc1ccc(CNC(=O)CCCn2nc(C)c3c(C)n(-c4ccc(C)cc4)nc3c2=O)cc1 | inactive: 74%
55 | COc1ccc(N2C(=O)NC(NS(=O)(=O)c3ccc(NC(C)=O)cc3)(C(F)(F)F)C2=O)cc1 (centres undefined) | inactive: 91%
56 | CCc1c(C)sc2c1CCN(C(=O)Nc1ccccc1Cl)C2c1ccc(OC)cc1 (centres undefined) | inactive: 101%
57 | Cc1cc(Cl)ccc1NC(=O)C1CCCN1S(=O)(=O)c1ccc2c(c1)CCCC(=O)N2 (centres undefined) | inactive: 102%
58 | Cc1ccc(-c2noc(-c3ccc(NC4CCCC4)c([N+](=O)[O-])c3)n2)cc1 | inactive: 98%
59 | CCc1ccc2c(c1)C1(NN=C(c3ccccc3)S1)C(=O)N2 (centres undefined) | active: 0%

Reference: PubChem BioAssay AID463173 (ICCB-Longwood Screening Facility, Harvard Medical School, 2010)
